First the molecules themselves.
T1: IL-18Rα/β heterodimer (Fc fused human IL-18Rα mixed and pre-incubated with Fc fused human IL-18Rβ) (human, UniProt Q13478 19-329; O95256 20-356, limits assumed)
T1 construct: 6 µg/mL of each receptor mixed and pre-incubated 30 min before capture on anti-human IgG; also called alpha/beta heterodimer IL-18 receptor; not shown: Fc part
T1 sequence (looked up) 1: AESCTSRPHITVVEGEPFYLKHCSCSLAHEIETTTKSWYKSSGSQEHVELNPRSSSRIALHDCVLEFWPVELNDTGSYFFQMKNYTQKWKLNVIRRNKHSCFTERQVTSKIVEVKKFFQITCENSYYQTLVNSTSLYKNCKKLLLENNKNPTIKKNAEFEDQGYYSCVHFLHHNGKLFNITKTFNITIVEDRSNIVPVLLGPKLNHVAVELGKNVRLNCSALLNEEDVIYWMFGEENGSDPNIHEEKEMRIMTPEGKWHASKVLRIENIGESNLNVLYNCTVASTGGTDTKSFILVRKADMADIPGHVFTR
T1 sequence (looked up) 2: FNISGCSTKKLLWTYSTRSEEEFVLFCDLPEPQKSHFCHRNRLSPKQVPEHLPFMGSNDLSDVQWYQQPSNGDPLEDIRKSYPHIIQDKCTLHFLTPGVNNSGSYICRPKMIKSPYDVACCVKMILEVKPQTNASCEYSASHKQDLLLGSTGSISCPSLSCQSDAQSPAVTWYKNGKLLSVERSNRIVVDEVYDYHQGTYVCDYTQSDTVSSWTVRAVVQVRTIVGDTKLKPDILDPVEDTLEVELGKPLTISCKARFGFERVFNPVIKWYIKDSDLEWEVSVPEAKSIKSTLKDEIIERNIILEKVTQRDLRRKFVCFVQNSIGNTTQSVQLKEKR

T2: Fc fused human IL-18BP isoform a (IL-18BPa) (human, UniProt O95998 31-194)
T2 construct: also called IL-18BP monomer; not shown: Fc part
T2 sequence (looked up): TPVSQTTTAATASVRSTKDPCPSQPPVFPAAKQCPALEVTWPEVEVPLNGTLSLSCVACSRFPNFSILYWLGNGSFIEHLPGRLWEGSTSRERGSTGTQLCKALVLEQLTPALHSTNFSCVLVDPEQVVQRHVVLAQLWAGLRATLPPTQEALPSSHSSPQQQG

T3: Fc fused human IL-18Rα (human, UniProt Q13478 19-329, limits assumed)
T3 construct: also called IL-18Rα monomer; IL-18 receptor alpha; not shown: Fc part
T3 sequence (looked up): T1 sequence (looked up) 1

B1: Modified IL-18 polypeptide of SEQ ID NO: 4 (K53A) (ligand)
chain: not shown
B2: Modified IL-18 polypeptide of SEQ ID NO: 21 (K53A, T63A) (ligand)
chain: not shown
B3: Modified IL-18 polypeptide of SEQ ID NO: 7 (E06K, K53A) (ligand)
chain: not shown
notes: also called E6K, K53A variant IL-18
B4: Modified IL-18 polypeptide of SEQ ID NO: 5 (S55A) (ligand)
chain: not shown
B5: Modified IL-18 polypeptide of SEQ ID NO: 20 (E06K, T63A) (ligand)
chain: not shown
B6: Modified IL-18 polypeptide of SEQ ID NO: 8 (E06K, S55A) (ligand)
chain: not shown
B7: Modified IL-18 polypeptide of SEQ ID NO: 19 (T63A) (ligand)
chain: not shown
B8: Modified IL-18 polypeptide of SEQ ID NO: 6 (E06K) (ligand)
chain: not shown
B9: Modified IL-18 polypeptide of SEQ ID NO: 9 (K53A, S55A) (ligand)
chain: not shown

The first assay has as its target T1, IL-18Rα/β heterodimer (Fc fused human …). Nature of the assay: SPR, Fc-IL-18Rα/Fc-IL-18Rβ mix captured, heterogeneous ligand model. The procedure:
(§1) The interaction of the wild type and of modified IL-18 polypeptides with human IL-18 receptor subunits were measured with Surface Plasmon Resonance (SPR) technology. Anti-human IgG antibodies were bound by amine coupling onto a CM5 chip to capture 6 μg/mL of Fc fused human IL-18Rα, 6 μg/mL of Fc fused human IL-18Rβ, or 2 μg/mL of Fc fused human IL-18BP isoform a (IL-18BPa) for 30 min before capture. In other settings, 6 μg/mL of alpha and beta IL-18 receptors were mixed and pre-incubated for 30 min before capture of the alpha/beta heterodimer IL-18 receptor.
(§2) The kinetic binding of the IL-18 analytes were measured with a Biacore 8K instrument in two-fold serial dilutions starting at 1 μM down to 0.98 nM. Regeneration of the surface back to amine coupled anti IgG antibody was done after every concentration of analyte. To measure the protein association to the receptors, the samples were injected with a flow rate of 50 μL/min for 60 s, followed by 300 s buffer only to detect the dissociation. The used running buffer was 1×PBS with 0.05% Tween20. The relative response units (RU, Y-axis) are plotted against time (s, X-axis) and analyzed in a kinetic 1:1 binding model for the monomer receptor binding and for the binding to the IL-18BP. A kinetic heterogenous ligand fit model was applied for the alpha/beta heterodimer binding.
Modified IL-18 polypeptides bearing sequence modifications E06K, K53A, S55A, and T63A maintained binding affinity to IL-18Rα/β heterodimer.
Molecule B1 registered a Kd of 249 nM, a koff of 0.0354 s⁻¹ and a kon of 142000 M⁻¹ s⁻¹.

B2: the affinity, expressed as Kd, was 63 nM; the koff came out at 0.00105 s⁻¹; the kon is 16700 M⁻¹ s⁻¹.

With B3, the Kd amounted to 1.47 nM, the koff turned out to be 0.000856 s⁻¹ and the kon was 582000 M⁻¹ s⁻¹.

For B4, binding was put at a Kd of 96.4 nM, the koff was 0.00998 s⁻¹ and the kon was 152000 M⁻¹ s⁻¹.

B5: binding was put at a Kd of 0.658 nM, the koff worked out at 0.000456 s⁻¹ and the kon came to 693000 M⁻¹ s⁻¹.

In the case of B6, the Kd came out at 14.8 nM, the koff turned out to be 0.933 s⁻¹ and the kon was 6.3e+07 M⁻¹ s⁻¹.

Consider B7, for which the Kd was found to be 9.09 nM, the koff was found to be 0.000624 s⁻¹ and the kon worked out at 68600 M⁻¹ s⁻¹.

B8 had a Kd of 0.335 nM, a koff of 0.000391 s⁻¹ and a kon of 1.3e+06 M⁻¹ s⁻¹.

Another assay deals with IL-18R on HEK-Blue IL18R reporter cells (InvivoGen, #hkb-hmil18). Nature of the assay: cell-based or functional assay.
Take B3: the “EC50 (pM), HEK-Blue IL18R reporter assay” value was found to be 0.72 pM and the “Potency loss Mutant/NWT, HEK-Blue IL18R reporter assay” value stood at 0.22 fold.

The target in the next assay is T2, Fc fused human IL-18BP isoform a …. Kind of assay: SPR, Fc-IL-18BPa captured, 1:1 model. The method, then: as §1, §2
Modified IL-18 polypeptides bearing sequence modifications K53A, S55A, E06K, C38S, C68S, C76S, C127S, and/or K70C maintained binding affinity to IL-18BP.
In the case of B1, the affinity, expressed as Kd, was 1.33 nM; the koff came to 0.000538 s⁻¹; the kon is 206000 M⁻¹ s⁻¹.

The molecule B2 gave a Kd of 9.22 nM, a koff of 0.000966 s⁻¹ and a kon of 105000 M⁻¹ s⁻¹.

The molecule B9 yielded a dissociation constant Kd of 29.8 nM, a dissociation rate constant (koff) of 0.00201 s⁻¹ and a kon of 67400 M⁻¹ s⁻¹.

For the molecule B3, the Kd was determined as 2.26 nM, the koff amounted to 0.00304 s⁻¹ and the kon was found to be 1.36e+06 M⁻¹ s⁻¹.

Turning to B4, the Kd is 1.13 nM, the koff worked out at 0.000298 s⁻¹ and the kon came out at 270000 M⁻¹ s⁻¹.

B5: the Kd came to 0.175 nM, the koff was found to be 0.000328 s⁻¹ and the kon is 1.87e+06 M⁻¹ s⁻¹.

B6 yielded a Kd of 0.364 nM, an off-rate constant (koff) of 0.000258 s⁻¹ and a kon of 710000 M⁻¹ s⁻¹.

In turn, B7 yielded a Kd of 0.0321 nM, a koff of 8.98e-06 s⁻¹ and a kon of 279000 M⁻¹ s⁻¹.

B8 gave a Kd of 0.101 nM, a koff of 0.000141 s⁻¹ and a kon of 1.46e+06 M⁻¹ s⁻¹.

The next assay has as its target T3, Fc fused human IL-18Rα. Nature of the assay: SPR, Fc-IL-18Rα captured, 1:1 model. The method, then:
as §1, §2
Modified IL-18 polypeptides having sequence modifications E06K, K53A, S55A, and T63A maintained binding affinity to IL-18Rα.
B1 gave a Kd of 200 nM, a koff of 0.032 s⁻¹ and a kon of 160000 M⁻¹ s⁻¹.

B2 yielded a Kd of 800 nM, a koff of 0.0133 s⁻¹ and a kon of 16600 M⁻¹ s⁻¹.

For B3, the Kd is 8.88 nM, the koff is 0.0071 s⁻¹ and the kon was 816000 M⁻¹ s⁻¹.

B4: the Kd is 136 nM, the koff came out at 0.0121 s⁻¹ and the on-rate (kon) came to 90800 M⁻¹ s⁻¹.

B5 had a Kd of 2.33 nM, a koff of 0.00151 s⁻¹ and a kon of 648000 M⁻¹ s⁻¹.

The molecule B6 yielded a Kd of 14.8 nM, a koff of 0.00393 s⁻¹ and a kon of 265000 M⁻¹ s⁻¹.

B7 returned a Kd of 37.8 nM, a koff of 0.00359 s⁻¹ and a kon of 95200 M⁻¹ s⁻¹.

The molecule B8 came in with a Kd of 1.37 nM, a koff of 0.00111 s⁻¹ and a kon of 824000 M⁻¹ s⁻¹.
